The source gives no read counts; variants with many changes may rest on few reads.
B1: CPEB3 Ribozyme (parent)
chain: UAACAGGGGGCCACAGCAGAAGCGUUCACGUCGCAGCCCCUGUCAGAUUCUGGUGAAUCUGCGAAUUCUGCUGUAUAUCUC

Variants of: B1
Assay: self-cleavage, relative activity (ratio to wild type); higher = more cleavage; in vitro, sequencing
Procedure, shortened: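 Barcoded CPEB3 ribozyme mutants, produced by rounds of error-prone PCR, self-cleaved while being transcribed with T7 RNA polymerase for 5 hours at 37°C and during a subsequent 15 min DNase I step before EDTA was added. Sequencing of template-switched cDNA on Illumina gave cleaved and total reads, and DNA sequencing assigned barcodes to variants. Each variant's relative activity is its cleaved/total read fraction divided by the unmutated ribozyme's fraction, averaged across three batches. A variant needed a minimum of 5 reads.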
With UAGCAGGGGGCCACAGCAGAAGCGUUCACGUCGCAGCCCCCGUCAGAUUCUGGUUGAUCUGCGAAUUCUGCUGUAUGUCUC [A3G U41C G55U A56G A77G] the self-cleavage was 0.99.
In the case of UAGCAGGGGGCCACAGCAGAAGCGUUCACGUCGCAGCCCCUGCCAGAUCCUGGCGAAUCAGCGAAUUCUGCUGUAUAUCUC [A3G U43C U49C U54C U60A], the self-cleavage is reported as 0.22.
Variant UAGCAGGGGGCCACAGCAGAAGCGUUCACGUCGCAGCCCCCGCCAGAUUCUGGUGAAUCAGCGAAUUCCGCUGUAUAUCUC [A3G U41C U43C U60A U69C] has a self-cleavage of 0.09.
Work on UAGCAGGGGGCCACAGCAGAAGCGUUCACGUCGCAGCCCCAGUCAAAUUCUGGUGAAUCUGCGAAUUCUGCUGUAUGUCUC [A3G U41A G46A A77G] yielded a self-cleavage of 0.1.
Work on UAGCAGGGGGCCACAGCAGAAGCGUUCACGUCGCAGCCCCAGUCAGAUUCUGGCGAAUCUGCGUAUUCCGCCGUAUAUCUC [A3G U41A U54C A64U U69C U72C] yielded a self-cleavage of 0.16.
With UAGCAGGGGGCCACAGCAGAAGCGUUCACGUCGCAGCCCCUGUCAGAUCCUGGUGAGUCUGCGGAUUCUGCUGUAUAUCUC [A3G U49C A57G A64G] the self-cleavage was 0.27.
With UAGCAGGGGGCCACAGCAGAAGCGUUCACGUCGCAGCCCCCGUCAGAUUCUGGUGUACCUGCGAACUCUGCUGUAUAUCUC [A3G U41C A56U U58C U66C] the self-cleavage was 0.25.
For UAGCAGGGGGCCACAGCAGAAGCGUUCACGUCGCAGCCCCCGUCAGAUUCUGGUAAACCUGCGAAUUCUGCUGUAUAUCUC [A3G U41C G55A U58C], the self-cleavage was 0.15.
Work on UAGCAGGGGGCCACAGCAGAAGCGUUCACGUCGCAGCCCCUGCCUGAUUCUGGUGAAUCUGCGAAUUCUGCUGUAUAUCUC [A3G U43C A45U] yielded a self-cleavage of 0.42.
In the case of UAGCAGGGGGCCACAGCAGAAGCGUUCACGUCGCAGCCCCAGUCAGAUUCCGGUGAAUCUGCGAAAUCUGCUGUAUAUCUC [A3G U41A U51C U66A], the self-cleavage is reported as 0.33.
For UAGCAGGGGGCCACAGCAGAAGCGUUCACGUCGCAGCCCCUGUCAGACUCUGGUGAGUCUGCGAAUUCUGCUGUAUAUCUC [A3G U48C A57G], the self-cleavage was 0.95.
In the case of UAGCAGGGGGCCACAGCAGAAGCGUUCACGUCGCAGCCCCCGUCAGAUUCUGGUGAAUCUGCGAAUUCAGCUGUAUAUCUC [A3G U41C U69A], the self-cleavage is reported as 0.82.
UAGCAGGGGGCCACAGCAGAAGCGUUCACGUCGCAGCCCCUGUCAGACUCUGGUGAAUCUGCGAAGUCUGCUGUAUAUCUC [A3G U48C U66G] showed a self-cleavage of 0.25.
For UAGCAGGGGGCCACAGCAGAAGCGUUCACGUCGCAGCCCCCGUCGGAUUCAAGUGAAUCUGCGAAUUCUGCCGUAUAUCUC [A3G U41C A45G U51A G52A U72C], the self-cleavage was 0.4.
Variant UAGCAGGGGGCCACAGCAGAAGCGUUCACGUCGCAGCCCCAGUCAGAUUCUGGUAAAUCUGCGAAUUCCGCUGUAUAUCUC [A3G U41A G55A U69C] has a self-cleavage of 0.21.
In the case of UAGCAGGGGGCCACAGCAGAAGCGUUCACGUCGCAGCCCCUGUCAGAUCCUGGUGGAUCUGCGAAUUCUGCUGUAUAUCUC [A3G U49C A56G], the self-cleavage is reported as 0.94.
UAGCAGGGGGCCACAGCAGAAGCGUUCACGUCGCAGCCCCCGUCAGAUUCUGGUGAAUCUGCGAAUUCUGCUGUAUACCUC [A3G U41C U78C] gave a self-cleavage of 1.11.
For UAGCAGGGGGCCACAGCAGAAGCGUUCACGUCGCAGCCCCUGUCAGACUCCGGUGAAUCUGCGAAUUCCGCUGCAUAUCUC [A3G U48C U51C U69C U74C], the self-cleavage was 0.24.
With UAGCAGGGGGCCACAGCAGAAGCGUUCACGUCGCAGCCCCUGCCAGAUUCUGGUGAAUCUGCGAAUUCUGCAGUAUAUCUC [A3G U43C U72A] the self-cleavage was 0.29.
Work on UAGCAGGGGGCCACAGCAGAAGCGUUCACGUCGCAGCCCCUGACGGUUUCUGGUGAAUCUGCGAAUUCUGCUGUAUAUCUC [A3G U43A A45G A47U] yielded a self-cleavage of 0.54.
Work on UAGCAGGGGGCCACAGCAGAAGCGUUCACGUCGCAGCCCCUGCCAGAUUCUGGUGAAUCUGCGAAUUCAGCUGUAUAUCUC [A3G U43C U69A] yielded a self-cleavage of 0.45.
Work on UAGCAGGGGGCCACAGCAGAAGCGUUCACGUCGCAGCCCCAGUCAGGUUCUGGUGAAUCUGCGAAUUCUGCUGUAUAACUC [A3G U41A A47G U78A] yielded a self-cleavage of 0.56.
Work on UAGCAGGGGGCCACAGCAGAAGCGUUCACGUCGCAGCCCCCGUCGGAUUCUGGUGAAUCUGCGAAUUCUGCUGUAUAUCUC [A3G U41C A45G] yielded a self-cleavage of 0.91.
UAGCAGGGGGCCACAGCAGAAGCGUUCACGUCGCAGCCCCCGUCUGAUUCUGGUGAAUCUGCGAAUUCUGCUGUAUAUCUC [A3G U41C A45U] showed a self-cleavage of 0.67.
UAGCAGGGGGCCACAGCAGAAGCGUUCACGUCGCAGCCCCUGACAGGUUCUGGUGAAUCUGCGAAUCCUGCUGUAUAUCUC [A3G U43A A47G U67C] gave a self-cleavage of 0.33.
With UAGCAGGGGGCCACAGCAGAAGCGUUCACGGCGCAGCCCCUGUCAGAUUCUGGUGAAUCUGCGAGUUCUGCUGUAUACCUC [A3G U31G A65G U78C] the self-cleavage was 0.22.
Variant UAGCAGGGGGCCACAGCAGAAGCGUUCACGUCGCAGCCCCUGACAGACUCUGGUGGAUCUGCGAAUUCUGCUGUAUAUCUC [A3G U43A U48C A56G] has a self-cleavage of 0.43.
Variant UAGCAGGGGGCCACAGCAGAAGCGUUCACGUCGCAGCCCCUGUCAGACUCUGGUGAAUCUGGGAAUUCUGCUGUAUAUCUC [A3G U48C C62G] has a self-cleavage of 0.16.
For UAGCAGGGGGCCACAGCAGAAGCGUUCACGUCGCAGCCCCAGUCGGAUUCUGGUGAAUCUGCGAAUUCUCCUGUAUAUCUC [A3G U41A A45G G70C], the self-cleavage was 0.21.
UAGCAGGGGGCCACAGCAGAAGCGUUCACGUCGCAGCCCCCGUCAGAUUCUGGUGAGUCUGCGAGUUCUGCUGUAUAUCUC [A3G U41C A57G A65G] showed a self-cleavage of 0.3.
UAGCAGGGGGCCACAGCAGAAGCGUUCACGUCGCAGCCCCUGUCAGAUACUGGUGAGUCUGCAAAUUCUGCUGUAUAUCUC [A3G U49A A57G G63A] showed a self-cleavage of 0.49.
UAGCAGGGGGCCACAGCAGAAGCGUUCACGUCGCAGCCCCUGUCAGAUCCUGGCGAAUCUGCGAACUCUGCUGUACAUCCC [A3G U49C U54C U66C U76C U80C] gave a self-cleavage of 0.37.
UAGCAGGGGGCCACAGCAGAAGCGUUCACGUCGCAGCCCCCGCCAGAUUCUGGUGGAUCUGCGAAUUCUGCUGUAUAUCUC [A3G U41C U43C A56G] showed a self-cleavage of 0.74.
In the case of UAGCAGGGGGCCACAGCAGAAGCGUUCACGUCGCAGCCCCCGUCAGAUUCUGGUUAAUCUGCGAAUCCCGCUGUAUAUCUC [A3G U41C G55U U67C U69C], the self-cleavage is reported as 0.29.

— the RNAGym collection of RNA variant scans (doi:10.1093/nar/gkz1192)
